# Experimental data from PubChem BioAssay AID686978 (National Center for Advancing Translational Sciences (NCATS), 2013).
# About 64,000 (15%) of roughly 420,000 compounds were called active. The inconclusive results got no clear call from the source; some entries with a clear call stand among them for comparison. The call rests on the fitted dose curve; in most records, active means well fitted inhibition curve with a large enough effect; inconclusive means small, poorly fitted or top-dose-only effect; inactive means flat fitted curve, though single readings scatter. No potency is given beside an inconclusive call; the fits are too rough.
# Assay: qHTS for Inhibitors of human tyrosyl-DNA phosphodiesterase 1 (TDP1): qHTS in cells in absence of CPT; further: nearly all actives have a fitted effect of over 55% in size
# Conditions: DT40 Tdp1-/- hTDP1 cells, no CPT, ATP luminescence, 48 h; activity change, negative = growth inhibition: at 46.2 µM (top of the series) unless noted
# Method in brief: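 No-CPT arm: Tdp1-/-;hTDP1 DT40 cells (400/well) plus compounds, incubated ≥48 hr at 37 °C. Readout CellTiter-Glo luminescence.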
# On the % scale 0 is the no-effect control and ±100 the full control effect; potency means the concentration at half of the fitted maximal effect; tags describe the fitted curve by direction and shape.
SMILES,Potency,"activity change, negative = growth inhibition"
O=C(C=Cc1ccccc1O)c1ccccc1O,active: 14.6 µM,–
Cc1nc(NC(=O)c2cnccn2)ccc1Br,–,inactive: 10.8%
O=C(NCc1ccco1)c1ccc2c(c1)N(Cc1ccccc1F)C(=O)c1ccccc1S2(=O)=O,"inconclusive [inhibitor, partial curve]",–
CCn1c(=O)cc(SCC(=O)NCc2ccc(C)cc2)c2ccccc21,active: 25.9 µM,–
COc1ccc(NC(=O)Cn2cc(C(C)=O)c3ccccc32)cc1,"inconclusive [inhibitor, full curve]",–
Cc1cc(C)cc(OCCn2ccnc2)c1,–,inactive: -1.79%
O=C(c1ccccc1)C1CCN(C(=O)C2CCC(=O)N(Cc3cccc(F)c3)C2)CC1 (stereo unspecified),–,inactive: -13.7%
CC(C)OCCCNC(=O)C(NC(=O)c1ccc(Cl)cc1)C(C)C (stereo unspecified),–,inactive: -1.92%
O=C(NNC(=O)c1ccc(-c2ccc([N+](=O)[O-])cc2)o1)c1ccncc1,–,inactive: 6.18%
O=C(Nc1cccc2ccccc12)N1CC=C(c2ccccc2)CC1,"inconclusive [inhibitor, single point]",–
O=C1C(NS(=O)(=O)c2ccc(Cl)cc2)=C(N2CCCCC2)C(=O)c2ccccc21,active: 18.4 µM,–
COc1cccc(-c2ccc3c(N)c(C(=O)Nc4ccccc4C)sc3n2)c1,active: 23.1 µM,–
CCSc1nnc(NC(=O)CSc2c(Cl)cccc2Cl)s1,–,inactive: -21.1%
COc1cccc(NC(=O)CCN2CCN(CCO)CC2)c1,–,inactive: -1.51%
COc1ccc(NC(=O)CN(C)C(=O)c2ccc3c(c2)S(=O)(=O)N=C2CCCCCN23)cc1,–,inactive: 10.7%
Cn1c(=O)c2[nH]c(NN=Cc3ccc(F)cc3)nc2n(C)c1=O,"inconclusive [inhibitor, single point]",–
CC(C)c1ccc2[nH]c3nc(SCC(=O)NC4CC4)nnc3c2c1,"inconclusive [inhibitor, partial curve, poor fit]",–
Cc1ccccc1OCC(=O)N/N=C/c1ccc2c(c1)OCCO2,"inconclusive [inhibitor, partial curve, poor fit]",–
CCS(=O)(=O)N1CCN(c2ccc(C(=O)NC34CC5CC(CC(C5)C3)C4)cc2[N+](=O)[O-])CC1,active: 7.31 µM,–
CCN(CC)CC(O)Cn1c(-c2cccc(Cl)c2)nc2cc(C)c(C)cc21 (stereo unspecified),"inconclusive [inhibitor, single point]",–
O=S(=O)(c1ccccc1)N1CN(c2ccc(F)cc2F)c2nc3ccccc3nc21,active: 25.9 µM,–
O=C1N(CC(=O)N2CCc3ccccc32)CCN1Cc1ccc(Cl)cc1,"inconclusive [inhibitor, single point]",–
CCOc1cc(-c2sc(Nc3ccc(CC)cc3)n[n+]2-c2ccccc2)ccc1OC,active: 18.4 µM,–
Cc1ccc(OCCC(=O)NNC(=O)c2nn(C)c(=O)c3ccccc23)cc1,–,inactive: 1.77%
O=C(Nc1ccccc1)Nc1cc(OCC(F)(F)F)cc(OCC(F)(F)F)c1,active: 2.91 µM,–
Cn1cccc1/C=N/NC(=O)C(O)c1ccccc1 (stereo unspecified),–,inactive: -0.662%

SMILES,Potency,"activity change, negative = growth inhibition"
CCCC(=O)Nc1ccc2nc(SCc3ccc(C)cc3)sc2c1,"inconclusive [inhibitor, single point]",–
CCCC(=O)Nc1cc(C(=O)O)ccc1S(=O)(=O)c1ccc(Cl)cc1,–,inactive: 6.33%
CC(C)CCNC(=O)c1ccc2c(c1)nc1n2CCCCC1,"inconclusive [inhibitor, partial curve]",–
Cc1ccccc1NC1c2ccccc2C(=O)N1Cc1ccco1 (stereo unspecified),–,inactive: -30.4%
CCCCC(O)(CCCC)C(=O)N/N=C(\C)c1ccc(Cl)cc1,"inconclusive [inhibitor, single point]",–
O=Nc1[nH]c(=O)c(/C=C(\O)c2ccccc2)nc1NO,active: 16.4 µM,–
COc1cc(-c2nnn(Cc3ccccc3C)n2)cc(OC)c1OC,active: 20.6 µM,–
O=S(=O)(Cc1cc(Cl)nc(-c2cccnc2)n1)c1ccccc1,–,inactive: -24.3%
O=C(COc1ccc(S(=O)(=O)NC2CCCCC2)cc1Cl)Nc1ccc2c(c1)OCO2,"inconclusive [inhibitor, single point]",–
Cc1ccc(S(=O)(=O)N2CCN(C(=O)c3ccccc3OCc3c(C)noc3C)CC2)cc1,"inconclusive [inhibitor, single point]",–
CCc1nnc(NC(=O)c2ccc(-c3ccccc3F)o2)s1,–,inactive: 18.2%
CCC(C)SCc1nc2ccccc2[nH]1 (stereo unspecified),"inconclusive [inhibitor, full curve]",–
CCCc1nc(SCC(=O)Nc2cc(C)on2)c2c(=O)n(C)c(=O)n(C)c2n1,"inconclusive [inhibitor, single point]",–
O=C(CN1C(=O)CC(c2ccccc2)S(=O)(=O)c2ccccc21)NC1CCCC1 (stereo unspecified),"inconclusive [inhibitor, single point]",–
CCCC(=O)N1CCC1(C)C(=O)NS(=O)(=O)c1ccc(C)cc1 (stereo unspecified),–,inactive: 6.11%
O=[N+]([O-])C1=CC=C2C(=NC3(CCCCC3)N2O)C1=NCCc1ccccc1,"inconclusive [inhibitor, single point]",–
Nc1ccc2oc(Cc3ccc(Cl)cc3)nc2c1,"inconclusive [inhibitor, single point]",–
Nc1cc(C(=O)c2ccccc2)ccc1[N+](=O)[O-],–,inactive: 0.146%
O=C(N/N=C/c1ccc(O)cc1O)c1ccc(CN2C(=O)c3cccc4cccc2c34)cc1,active: 3.66 µM,–
COCCNc1ccc(-c2nc(-c3ccccn3)no2)cc1[N+](=O)[O-],–,inactive: -26.5%
CCC1(CC)NC(=O)N(CC(=O)OCC(=O)Nc2ccc(OC(F)(F)F)cc2)C1=O,–,inactive: 15.2%
Cc1ccsc1C(C(=O)NC1CCCCC1)N(C(=O)Cc1cccs1)C1CC1 (stereo unspecified),"inconclusive [inhibitor, partial curve]",–
Cc1cccc(OCC(=O)Nc2ccccc2C(=O)OCc2cc(=O)n3nc(C4CC4)sc3n2)c1,–,inactive: -16.9%
CC(=O)O/N=C1\C(=O)N(Cc2ccc(C)cc2)c2ccccc21,–,inconclusive: -33.1% [inhibitor]
CCOCCCNC(=O)C(c1ccccc1)N(Cc1cccs1)C(=O)c1ccccc1O (stereo unspecified),"inconclusive [inhibitor, single point]",–
